# In PubChem BioAssay AID623962 (The Scripps Research Institute Molecular Screening Center, 2012):
# Certain results were filed several times, with different values. This is not the full list of results. The source may hold further records.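 How the source made its calls: active means mean inhibition at 10 µM of 50% or more; inactive means mean inhibition at 10 µM below 50%.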 Results that share an entry are repeats (runs, samples, wells, individuals or studies). Records carry a tag for their origin. The letters are not those of the source and start again with each entry.
# Tested on: Huh-7.5 HCV Rluc replicon, luciferase luminescence, 72 h
# Assay: inhibition of HCV replicon replication, late-stage follow-up, orthogonal assay for HCV NS3 helicase inhibitor project, cell-based, luminescence, Renilla luciferase replicon (AID 623962)
# Settings: at 10 µM; stronger effect = higher value
# In short: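 Dosing: one concentration, 10 µM in 0.5% DMSO / Assay system: Huh-7.5 HCV Renilla luciferase replicon cells / Benchmarks: DMSO-treated cells as uninhibited reference / Signal: Renilla luciferase luminescence of lysed cells / Schedule: cell attachment 4-5 h, then compound exposure 72 h, 37 °C, 5% CO2 / Read-out basis: % replication inhibition versus DMSO-treated cells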
row,SMILES,inhibition
1,Cc1ccc2nc(-c3ccc4nc(-c5ccc(N)cc5)sc4c3)sc2c1S(=O)(=O)O,inactive: 9% [sample A] and 55% [sample B] and inactive: 12% [sample C]
2,Cc1ccc2nc(-c3ccc4nc(-c5ccc(NC(=O)c6ccc7ccccc7c6)cc5)sc4c3)sc2c1S(=O)(=O)O,61% [sample A] and inactive: 21% [sample B]
3,NS(=O)(=O)c1ccc2nc(NC(=O)c3ccc4ncsc4c3)sc2c1,54% [sample A] and inactive: -9% [sample B]
